# The campaign covered roughly 3,200 compounds. About 75 (2%) showed an effect of 50% or more. Some of the results follow.
# Test system: T1, S. aureus MSSA476
# T1 construct: MSSA476
# Set-up: species or system S. aureus MSSA476 (TSB) or V. cholerae SAD30 (LB); 384-well bacterial growth screen at 25 uM, OD600 relative to DMSO control
# Conditions: relative growth, OD600, TSB; 25 µM; inhibitor
row,Structure (SMILES),% of control remaining [%]
1,"Cc1cc(C(=O)CCl)c(C)n1-c1cccc(Cl)c1 [10-N18, 2-chloro-1-[1-(3-chlorophenyl)-2,5-dimethyl-1H-pyrrol-3-yl]ethan-1-one]",100.313
2,"C=CC(=O)N(C)Cc1cn(C2CC2)cn1 [2-J13, N-[(1-cyclopropyl-1H-imidazol-4-yl)methyl]-N-methylprop-2-enamide]",118.712
3,"C=CC(=O)N[C@H]1CCO[C@@H]1c1ccnn1C [2-K19, N-[(2S,3S)-2-(1-methyl-1H-pyrazol-5-yl)oxolan-3-yl]prop-2-enamide]",105.135
4,"CC(Cl)C(=O)N1CCOCC(n2cccn2)C1 (centres unmarked) [6-H22, 2-chloro-1-[6-(1H-pyrazol-1-yl)-1,4-oxazepan-4-yl]propan-1-one]",103.463
5,"C=CC(=O)NCc1nc2c(s1)CCCC2 [1-G18, N-[(4,5,6,7-tetrahydro-1,3-benzothiazol-2-yl)methyl]prop-2-enamide]",119.56
6,"Cc1ccc(CN(C(=O)CCl)C2CC2)o1 [6-E03, 2-chloro-N-cyclopropyl-N-[(5-methylfuran-2-yl)methyl]acetamide]",82.9756
7,"C=CC(=O)NCC(=O)Nc1ccc2c[nH]nc2c1 [1-L11, N-{[(2H-indazol-6-yl)carbamoyl]methyl}prop-2-enamide]",97.4066
8,"CC(Cl)C(=O)Nc1cccc(-c2ncc3n2CCCC3)c1 (centres unmarked) [5-F19, 2-chloro-N-(3-{5H,6H,7H,8H-imidazo[1,5-a]pyridin-3-yl}phenyl)propanamide]",100.911
9,"CC(NC(=O)CCl)c1cc(F)ccc1N(C)C (centres unmarked) [5-L11, 2-chloro-N-{1-[2-(dimethylamino)-5-fluorophenyl]ethyl}acetamide]",109.29
10,"C=CC(=O)NC1CCC(c2nc(-c3ccccc3)n[nH]2)CC1 (centres unmarked) [1-P05, N-[4-(3-phenyl-1H-1,2,4-triazol-5-yl)cyclohexyl]prop-2-enamide]",81.9341
11,"Cc1cc(C(=O)CCl)c(C)n1-c1ccccc1 [10-L20, 2-chloro-1-(2,5-dimethyl-1-phenyl-1H-pyrrol-3-yl)ethan-1-one]",127.188
12,"Cc1cc(C(=O)CCl)c(C)n1CCc1cccs1 [10-F16, 2-chloro-1-{2,5-dimethyl-1-[2-(thiophen-2-yl)ethyl]-1H-pyrrol-3-yl}ethan-1-one]",20.3125
13,"N#CC(=Cc1cccnc1)C(=O)Nc1cccc2ccccc12 [8-L17, 2-cyano-N-(naphthalen-1-yl)-3-(pyridin-3-yl)prop-2-enamide]",142.407
14,"N#CC(=Cc1csc(C2CC2)n1)C(=O)Nc1ccccc1C(=O)O [9-C16, 2-[2-cyano-3-(2-cyclopropyl-1,3-thiazol-4-yl)prop-2-enamido]benzoic acid]",75.8052
15,"Cc1ccc(C=C(C#N)C(=O)NC2CCCC2)cc1C [8-E12, 2-cyano-N-cyclopentyl-3-(3,4-dimethylphenyl)prop-2-enamide]",100.581
16,"C=CC(=O)NC1CN(S(=O)(=O)c2ccc3c(c2)OCCO3)C1 [2-E11, N-[1-(2,3-dihydro-1,4-benzodioxine-6-sulfonyl)azetidin-3-yl]prop-2-enamide]",96.4317
17,"C=CC(=O)NC1(c2ncon2)CC1 [1-A05, N-[1-(1,2,4-oxadiazol-3-yl)cyclopropyl]prop-2-enamide]",98.1099
18,"CCn1nc(C)c(C(=O)CCl)n1 [10-P08, 2-chloro-1-(2-ethyl-5-methyl-2H-1,2,3-triazol-4-yl)ethan-1-one]",110.625
19,"COC(=O)C1(NC(=O)CCl)CC1 [6-I06, methyl 1-(2-chloroacetamido)cyclopropane-1-carboxylate]",95.9512
20,"C=CC(=O)N(C)Cc1noc(C2CC2)n1 [2-N17, N-[(5-cyclopropyl-1,2,4-oxadiazol-3-yl)methyl]-N-methylprop-2-enamide]",123.586
21,"C=CC(=O)Nc1ccc(C(C)Sc2ccccc2)cc1 (centres unmarked) [1-C21, N-{4-[1-(phenylsulfanyl)ethyl]phenyl}prop-2-enamide]",128.703
22,"O=C(CCl)N1CC2CCC(C1)O2 [6-M20, 2-chloro-1-{8-oxa-3-azabicyclo[3.2.1]octan-3-yl}ethan-1-one]",96.2927
23,"C=CC(=O)N(C)CC(=O)N1CCC2(CC1)CC2c1nnc(C(C)C)o1 (centres unmarked) [2-N22, N-methyl-N-(2-oxo-2-{1-[5-(propan-2-yl)-1,3,4-oxadiazol-2-yl]-6-azaspiro[2.5]octan-6-yl}ethyl)prop-2-enamide]",98.8686
24,"C=CC(=O)NC(C)c1ccc(-n2ccnn2)cc1 (centres unmarked) [3-B13, N-{1-[4-(1H-1,2,3-triazol-1-yl)phenyl]ethyl}prop-2-enamide]",131.998
25,"C=CC(=O)Nc1cccc(C(=O)C(F)F)c1 [1-G14, N-[3-(2,2-difluoroacetyl)phenyl]prop-2-enamide]",107.253
26,"COc1ccc(Cl)c2c1CCCC2N(C)C(=O)C(C)Cl (centres unmarked) [7-P09, 2-chloro-N-(8-chloro-5-methoxy-1,2,3,4-tetrahydronaphthalen-1-yl)-N-methylpropanamide]",109.576
27,"CC(Cl)C(=O)Nc1ccc2c(c1)ncn2-c1ccccc1 (centres unmarked) [6-N13, 2-chloro-N-(1-phenyl-1H-1,3-benzodiazol-5-yl)propanamide]",87.7561
28,"O=C(CCl)N1CCN(C2CCCN(C3CCOCC3)C2=O)CC1 (centres unmarked) [5-E18, 3-[4-(2-chloroacetyl)piperazin-1-yl]-1-(oxan-4-yl)piperidin-2-one]",98.3607
29,"CCn1cc(C2CN(C(=O)C(C)Cl)CCO2)cn1 (centres unmarked) [7-G08, 2-chloro-1-[2-(1-ethyl-1H-pyrazol-4-yl)morpholin-4-yl]propan-1-one]",84.7724

# Reference: paper PMC11995724, “Antibiotic target discovery by integrated phenotypic and activity-based profiling of electrophilic fragments” (Cell chemical biology, 2025)
